Experimental data from the supplement of paper PMC10369915.
This is one part of the list. Cut-off read from the data, not from the text of the source: active = 3.2 or more and inactive = the rest. The signal is at background level for most entries.

The binders below were run against SHP2 C-SH2 domain E139D (assay: enrichment score (SH2-bound / input frequency) (ratio); bacterial display of known human phosphotyrosine sites (pTyr-Var adds point mutants) read by sequencing; higher = stronger binding; tyrosines were phosphorylated by kinases first). Settings: peptide library: pTyr-Var.
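Note: displayed peptides selected on beads carrying the immobilized SH2 domain, with library peptides lacking any tyrosine serving as negative controls.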

Enrichment score, inactive:
LITTLYIGFLD [KCNQ1_Y267_G272D] 2.22
FPRAWCRRSIA [KIAA1109_Y4272_Y4272C] 0.249
GCRSKYVRLWG [KCNQ1_Y184_G186R] 1.28
VVTGPYEKPSL [KIR3DS1_Y221_L220P] 0.673
NQNIGYELGHR [KCNN3_Y268_K269E] 0.696
TESALYGCTVV [KIAA1804_Y724_L729V] 0.852
DRKRQYELLKL [KIF4B_Y684] 0.973
VKFLGYPPPEI [KDR_Y357_A352V_YF] 1.34
SAEEDYMADAK [KCNT1_Y876] 0.587
PTQLPYDHKWE [KIT_Y578] 0.678
LQIPMYEVQWK [KIT_Y553_K550I] 1.2
GCRSKYVGLWR [KCNQ1_Y184_G189R] 0.847
LVTAWYIGFLC [KCNQ2_Y237] 3.1
DPKFHYDNTAG [KDR_Y1214] 0.574
KDFNKYVAYIE [KDM4B_Y31] 0.889
NKYVAYIESQG [KDM4B_Y34] 1.04
ESLRSYDVMDV [KCNQ2_Y562_P561S] 0.749

Enrichment score, active:
LYSINYLHFGE [KDM4C_Y201] 3.77
LITTLYISFLG [KCNQ1_Y267_G269S] 3.32

These binders were tested against SHP2 C-SH2 domain wild-type in the same assay as above. Settings: peptide library: pTyr-Var.

Enrichment score, active:
LYSINYLHFGE [KDM4C_Y201] 5.59
LITTLYISFLG [KCNQ1_Y267_G269S] 3.55

Enrichment score, inactive:
LITTLYIGFLD [KCNQ1_Y267_G272D] 2.84
FPRAWCRRSIA [KIAA1109_Y4272_Y4272C] 0.407
GCRSKYVRLWG [KCNQ1_Y184_G186R] 1.39
VVTGPYEKPSL [KIR3DS1_Y221_L220P] 0.573
NQNIGYELGHR [KCNN3_Y268_K269E] 0.741
TESALYGCTVV [KIAA1804_Y724_L729V] 1.05
DRKRQYELLKL [KIF4B_Y684] 0.808
VKFLGYPPPEI [KDR_Y357_A352V_YF] 1.3
SAEEDYMADAK [KCNT1_Y876] 0.507
PTQLPYDHKWE [KIT_Y578] 0.596
LQIPMYEVQWK [KIT_Y553_K550I] 1.51
GCRSKYVGLWR [KCNQ1_Y184_G189R] 0.898
LVTAWYIGFLC [KCNQ2_Y237] 3.17
DPKFHYDNTAG [KDR_Y1214] 0.733
KDFNKYVAYIE [KDM4B_Y31] 0.941
NKYVAYIESQG [KDM4B_Y34] 1.31
ESLRSYDVMDV [KCNQ2_Y562_P561S] 0.89

These binders were tested against SHP2 N-SH2 domain L43F in the same assay as above. Settings: peptide library: pTyr-Var.

Enrichment score, inactive:
LITTLYIGFLD [KCNQ1_Y267_G272D] 2.57
FPRAWCRRSIA [KIAA1109_Y4272_Y4272C] 0.269
GCRSKYVRLWG [KCNQ1_Y184_G186R] 1.98
VVTGPYEKPSL [KIR3DS1_Y221_L220P] 0.696
NQNIGYELGHR [KCNN3_Y268_K269E] 0.682
TESALYGCTVV [KIAA1804_Y724_L729V] 0.703
DRKRQYELLKL [KIF4B_Y684] 0.818
VKFLGYPPPEI [KDR_Y357_A352V_YF] 0.997
SAEEDYMADAK [KCNT1_Y876] 0.54
LITTLYISFLG [KCNQ1_Y267_G269S] 2.39
PTQLPYDHKWE [KIT_Y578] 0.801
LQIPMYEVQWK [KIT_Y553_K550I] 1.77
GCRSKYVGLWR [KCNQ1_Y184_G189R] 0.686
LVTAWYIGFLC [KCNQ2_Y237] 2.01
DPKFHYDNTAG [KDR_Y1214] 0.521
KDFNKYVAYIE [KDM4B_Y31] 0.788
NKYVAYIESQG [KDM4B_Y34] 0.707
ESLRSYDVMDV [KCNQ2_Y562_P561S] 0.885

Enrichment score, active:
LYSINYLHFGE [KDM4C_Y201] 4.57

These binders were tested against SHP2 N-SH2 domain T42A in the same assay as above. Settings: peptide library: pTyr-Var.

Enrichment score, active:
LYSINYLHFGE [KDM4C_Y201] 7.36
GCRSKYVRLWG [KCNQ1_Y184_G186R] 3.38

Enrichment score, inactive:
LITTLYIGFLD [KCNQ1_Y267_G272D] 1.96
FPRAWCRRSIA [KIAA1109_Y4272_Y4272C] 0.331
VVTGPYEKPSL [KIR3DS1_Y221_L220P] 0.581
NQNIGYELGHR [KCNN3_Y268_K269E] 0.692
TESALYGCTVV [KIAA1804_Y724_L729V] 0.726
DRKRQYELLKL [KIF4B_Y684] 0.603
VKFLGYPPPEI [KDR_Y357_A352V_YF] 1.1
SAEEDYMADAK [KCNT1_Y876] 0.598
LITTLYISFLG [KCNQ1_Y267_G269S] 2.64
PTQLPYDHKWE [KIT_Y578] 0.75
LQIPMYEVQWK [KIT_Y553_K550I] 1.33
GCRSKYVGLWR [KCNQ1_Y184_G189R] 0.756
LVTAWYIGFLC [KCNQ2_Y237] 2.03
DPKFHYDNTAG [KDR_Y1214] 0.452
KDFNKYVAYIE [KDM4B_Y31] 0.833
NKYVAYIESQG [KDM4B_Y34] 1.02
ESLRSYDVMDV [KCNQ2_Y562_P561S] 0.731

What follows are binders tested against SHP2 N-SH2 domain T52S in the same assay as above. Settings: peptide library: pTyr-Var.

Enrichment score, inactive:
LITTLYIGFLD [KCNQ1_Y267_G272D] 2.61
FPRAWCRRSIA [KIAA1109_Y4272_Y4272C] 0.256
GCRSKYVRLWG [KCNQ1_Y184_G186R] 2.24
VVTGPYEKPSL [KIR3DS1_Y221_L220P] 0.744
NQNIGYELGHR [KCNN3_Y268_K269E] 0.859
TESALYGCTVV [KIAA1804_Y724_L729V] 0.648
DRKRQYELLKL [KIF4B_Y684] 0.712
VKFLGYPPPEI [KDR_Y357_A352V_YF] 1.13
SAEEDYMADAK [KCNT1_Y876] 0.484
LITTLYISFLG [KCNQ1_Y267_G269S] 2.42
PTQLPYDHKWE [KIT_Y578] 0.744
LQIPMYEVQWK [KIT_Y553_K550I] 1.29
GCRSKYVGLWR [KCNQ1_Y184_G189R] 0.648
LVTAWYIGFLC [KCNQ2_Y237] 2.46
DPKFHYDNTAG [KDR_Y1214] 0.684
KDFNKYVAYIE [KDM4B_Y31] 0.992
NKYVAYIESQG [KDM4B_Y34] 0.848
ESLRSYDVMDV [KCNQ2_Y562_P561S] 0.796

Enrichment score, active:
LYSINYLHFGE [KDM4C_Y201] 4.97

The binders below were run against SHP2 N-SH2 domain wild-type in the same assay as above. Settings: peptide library: pTyr-Var.

Enrichment score, inactive:
LITTLYIGFLD [KCNQ1_Y267_G272D] 3.05
FPRAWCRRSIA [KIAA1109_Y4272_Y4272C] 0.322
GCRSKYVRLWG [KCNQ1_Y184_G186R] 1.12
VVTGPYEKPSL [KIR3DS1_Y221_L220P] 0.801
NQNIGYELGHR [KCNN3_Y268_K269E] 0.796
TESALYGCTVV [KIAA1804_Y724_L729V] 1.22
DRKRQYELLKL [KIF4B_Y684] 1.12
VKFLGYPPPEI [KDR_Y357_A352V_YF] 1.05
SAEEDYMADAK [KCNT1_Y876] 0.481
LITTLYISFLG [KCNQ1_Y267_G269S] 2.96
PTQLPYDHKWE [KIT_Y578] 0.925
LQIPMYEVQWK [KIT_Y553_K550I] 1.86
GCRSKYVGLWR [KCNQ1_Y184_G189R] 0.678
LVTAWYIGFLC [KCNQ2_Y237] 2.93
DPKFHYDNTAG [KDR_Y1214] 0.707
KDFNKYVAYIE [KDM4B_Y31] 0.985
NKYVAYIESQG [KDM4B_Y34] 0.929
ESLRSYDVMDV [KCNQ2_Y562_P561S] 1.12

Enrichment score, active:
LYSINYLHFGE [KDM4C_Y201] 3.59
